# According to PubChem BioAssay AID1347073 (National Center for Advancing Translational Sciences (NCATS), 2019):
# Hit rate of the full screen: of about 45,000 compounds, about 200 (0.44%) were called active. Not shown: some 7% with an inconclusive outcome. The call rests on the fitted dose curve; in most records, active means well fitted activation curve with a large enough effect; inconclusive means small, poorly fitted or top-dose-only effect; inactive means no such curve, though single readings can be large or run the other way. This is one part of the list.
# Assay: qHTS of TDP-43 Inhibitors: NCGC Sytravon Library Screen; further: 0% is about no effect; nearly all actives have a fitted effect of over 55% in size
# Conditions: yeast TDP-43 toxicity rescue, BacTiter-Glo growth, 24 h; series mostly up to 46.1 µM; growth rescue (activation): at the top concentration
# Method in brief: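 TDP-43-expressing yeast, pregrown in raffinose, seeded at OD600 0.02 in galactose medium with compound for 24 hr at 30 deg C. Growth read by BacTiter-Glo luminescence, so rescue of toxicity appears as activation.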
row,Compound,growth rescue (activation)
1,COc1ccc(C2CC(c3ccc(Br)cc3)=NN2C(=S)Nc2ccccc2)cc1 (configuration not stated),inactive: 27.3%
2,O=C(N/C=C\n1cnc2cc(C(F)(F)F)ccc21)c1ccc([N+](=O)[O-])cc1,inactive: 13.6%
3,O=C(Nc1ccc(F)c(Cl)c1)c1csc([C@@H]2O[C@H](CO)[C@H](O)[C@H](O)[C@H]2O)n1,inactive: 7.97%
4,CCn1nc(C)c(/C=N/NC(=S)Nc2ccc(Cl)cc2Cl)c1C,inactive: 19%
5,CC(=O)Nc1c2c(nn1-c1ccccc1C)CS(=O)(=O)C2,inactive: 2.84%
6,CCOC(=O)c1sc(NC(=O)CC)nc1C,inactive: 27.4%
7,CCOc1cc(/C=N/n2c(C)nc3ccccc3c2=O)ccc1O,inactive: 11.8%
8,Cc1cc(NC(=O)CSCC(=O)N(c2ccc(F)cc2)C(C(=O)NC2CCCCC2)c2ccc(O)c(O)c2)no1 (configuration not stated),inactive: -28.2%
9,C=CCNC(=O)CN1CCC(NC(=O)c2ccco2)CC1,inactive: -5.81%
10,COc1cc(OC)cc(C(=O)NNC(=O)C2CCCC2)c1,inactive: 7.52%
11,O=C(CSc1cccc2cccnc12)OCC(=O)c1ccc(Br)cc1,inactive: 0.411%
12,Cc1cc2ncn(CC(C)C)c2cc1C,inactive: 3.21%
13,O=C(N=Nc1c(O)[nH]c2ccccc12)c1cc(-c2ccc(F)cc2)n[nH]1,inactive: -5.56%
14,CCOC(=O)N1CCN(C(=O)CCCN2C(=O)CSc3nc(C)cc(C)c32)CC1,inactive: -5.06%
15,Cc1cccc(N(C(=O)c2snc(C(N)=O)c2N)C(C(=O)NC2CCCC2)c2ccc(C)o2)c1 (configuration not stated),inactive: 8.87%
16,COc1ccc2cc(C(C)C(=O)N3CCC(C)CC3)ccc2c1 (configuration not stated),inactive: 21.9%
17,COCCCNC(=O)Cn1cc(/C=C(\C#N)C(=O)N2CCN(c3ccccc3)CC2)c2ccccc21,inactive: 4.87%
18,O=c1oc2ccccc2c(Nc2ccc(F)cc2)c1[N+](=O)[O-],inactive: 3.44%
19,CC(=O)c1ccc(C(=O)N2CCCC(CCC(=O)N(C)CCc3ccccn3)C2)s1 (configuration not stated),inactive: 4.94%
20,COC(=O)C(C)Sc1nc2c(c(=O)[nH]c(=O)n2C)n1CCC(C)C (configuration not stated),inactive: -3.44%
21,O=C(Nc1ccc2c(c1)OCCO2)C1CCN(S(=O)(=O)c2ccccc2)CC1,inactive: -2.75%
22,COc1ccc(/C=C(\NC(=O)c2ccc(Cl)cc2)C(=O)NCCCn2ccnc2)cc1OC,inactive: -18.8%

row,Compound,growth rescue (activation)
1,O=C(NCCN1CCOCC1)C1CCN(S(=O)(=O)N2CCCC2)CC1,inactive: -3.52%
2,O=C(CN1C(=O)NC2(CCc3ccccc32)C1=O)NCC(F)(F)F (configuration not stated),inactive: 4.39%
3,CC(Sc1nnc(COc2ccccc2)n1-c1ccccc1)C(=O)O (configuration not stated),inactive: 0.0809%
4,Cc1ccc2nc(-c3ccc(F)cc3)nc(SCC(=O)NCC3CCCO3)c2c1 (configuration not stated),inactive: 1.82%
5,CNS(=O)(=O)c1ccc(NC(=O)c2cc(-c3ccncc3)nc3ccc(Cl)cc23)cc1,inactive: 15.6%
6,O=C1C2CC=CCC2C(=O)N1c1ccc(NCCc2ccc(Cl)cc2)c([N+](=O)[O-])c1 (configuration not stated),inactive: 2.89%
7,O=C(NN1C(=O)C2C3C=CC(C4CC34)C2C1=O)c1ccc(Cl)c(Cl)c1 (configuration not stated),inactive: 14.6%
8,CCOc1ccccc1NC(=O)N1CCC(NC(=O)C2CCCCC2)CC1,inactive: 8.92%
9,O=C(NCc1ccccc1)c1cc[n+](CC(=O)c2cccs2)cc1,inactive: 21.9%
10,Cc1ccc(C)c(NC(=S)N(CCc2ccncc2)C(C)C)c1,inactive: 2.68%
11,N#CCCn1cc(/C=C2\NC(=S)N(c3ccccc3)C2=O)c(-c2ccc(F)cc2)n1,inactive: -1.35%
12,COc1ccc(CC(=O)N2CCN(c3ccc(F)cc3)CC2)cc1,inactive: 6.61%
13,Cc1c(Cl)cccc1NC(=O)C1CCCN(c2nnc(-n3c(C)ccc3C)s2)C1 (configuration not stated),inactive: -0.426%
14,O=C(Cc1ccccc1)NC1(Cc2ccc(O)cc2)CCCCC1,inactive: -2.94%
15,COc1ccc(C(=O)Nc2ccc(O)cc2C(=O)O)cc1,inactive: 0.466%
16,COc1cc(CN2C(=S)NC(C)(C)CC2(C)O)cc(OC)c1 (configuration not stated),inactive: 1.04%
17,COc1ccc(NC(=O)CSc2nc3cccnc3n2C)cc1,inactive: 7.76%
18,COCCNC(=S)N1CCOCC1,inactive: 15.1%
19,CC1=C(C(=O)Nc2cccc(F)c2)C(c2ccsc2)C2=C(CC(C)(C)CC2=O)N1 (configuration not stated),inactive: 12.4%
20,CSCC(=O)N1CCCC(CO)(Cc2ccccc2C)C1 (configuration not stated),inactive: -0.969%
21,O=C(NC1CCCCC1)C1CCN(C(=O)c2ccccc2Cl)CC1,inactive: 6.7%
22,CC(C)(C)C1c2[nH]c3ccccc3c2CCN1Cc1cccc(OCCO)c1 (configuration not stated),inactive: 4.25%

row,Compound,growth rescue (activation)
1,CCOc1ccccc1N1CCN(CC(O)COCc2cccs2)CC1 (configuration not stated),inactive: -3.6%
2,COCCNC(=O)/C(C#N)=C/c1ccc(N2CCOCC2)o1,inactive: 20.9%
3,Cc1nc(Nc2ccc(S(N)(=O)=O)cc2)sc1-c1ccccc1,inactive: -16%
4,Clc1nc2ccccc2nc1-c1ccccc1,inactive: 29.6%
5,N#Cc1ccc(/C=N/NC(=O)c2cccc(S(=O)(=O)N3CCOCC3)c2)cc1,inactive: -16%
6,CN(CCc1cnn(C)c1)Cc1cn(C)nc1-c1ccc2c(c1)OCCO2,inactive: 7.16%
7,CCOC(=O)CNC(=O)CSc1ccc(-c2nc3ccccc3[nH]2)cn1,inactive: -1.35%
8,Nn1c(SCC(=O)Nc2ccc3c(c2)CCC3)nnc1C1CC1,inactive: 12%
9,CCS(=O)(=O)c1ccc2oc(Nc3cccc(OC)c3)nc2c1,inactive: -0.488%
10,COc1ccc(NC(=O)CCNC(=O)c2ccccc2)cc1S(N)(=O)=O,inactive: 14.2%
11,Cc1cccc(C(=O)NC2CCN(C(=O)NCc3ccccc3)CC2)c1,inactive: 16.7%
12,O=C(CNc1cccc2ccccc12)N/N=C/c1ccc([N+](=O)[O-])cc1,inactive: 14.1%
13,CCc1nc2c(OCc3ccccc3)cccn2c1N(C)C(=O)c1ccc(OC)cc1,inactive: 14.9%
14,Cc1ccc(Cn2c(SCC(=O)N3CC(=O)Nc4ccccc43)nc3ccccc3c2=O)cc1,inactive: -9.84%
15,Cc1c(Cl)cccc1NC(=O)CNC(=O)Cc1n[nH]c(=O)c2ccccc12,inactive: 3.21%
16,CCOc1ccc(CNn2cnnc2)cc1,inactive: 0.129%
17,Cc1ccc(-c2csc3ncnc(NS(=O)(=O)c4ccc(Cl)cc4)c23)cc1,inactive: -1.88%
18,CCCNCC(=O)Nc1cccc(S(=O)(=O)NC2=NCCCCC2)c1,inactive: 1.32%
19,COc1ccc(-c2ccc(=O)n(Cc3cc(=O)n4ccccc4n3)n2)cc1,inactive: 15.8%
20,Cc1ccc(NC(=O)CSc2nnc(-c3ccccn3)n2N)c(Br)c1,inactive: 6.77%
21,CCC(C)Nc1nc(-c2c[nH]c3ccccc23)cs1 (configuration not stated),inactive: 0.72%
22,Nc1c(-c2nc(-c3ccccc3)no2)nnn1CC(=O)Nc1ccccc1,inactive: 9.12%

row,Compound,growth rescue (activation)
1,COc1ccc(C(C)(C)C)cc1NC(=O)COC(=O)CN1C(=O)NC2(CCCCC2C)C1=O (configuration not stated),inactive: 9.65%
2,Cc1cccnc1C(NC(=O)C1CCN(CCCOc2ccccc2)CC1)c1ccc(F)cc1 (configuration not stated),inactive: 5.83%
3,O=C(CSc1ccc(Cl)cc1)Nc1ccc(-c2nc3ccccc3[nH]2)cc1,inactive: 19.2%
4,O=C(NCCCl)Nc1cccnc1Cl,inactive: -8.96%
5,CCN(CC(=O)NCc1ccc(Cl)cc1)C(=O)c1ccc2cc(OC)ccc2c1,inactive: 27.4%
6,COc1ccc(S(=O)(=O)N(CC(=O)N/N=C/c2ccc(C(=O)O)cc2)Cc2ccccc2)cc1OC,inactive: 10.1%
7,Cc1sc2ncnc(SCC(=O)N3CCCCC3)c2c1C,inactive: 11.8%
8,Cc1csc(NC(=O)CCC(=O)N(CC(=O)NC2CCCC2)c2ccccc2)n1,inactive: -0.098%
9,CCCn1c(SCC(=O)c2c(C)[nH]c(C)c2C(=O)OCC)nc2ccccc21,inactive: 15.9%
10,Cc1cc(NC(=O)CN2C(=O)NC(C)(c3ccccc3Cl)C2=O)no1 (configuration not stated),inactive: -5.6%
11,Oc1ccc(Cl)cc1C1=NNC(c2cc(Br)cc3c2OCOC3)C1 (configuration not stated),inactive: 7.11%
12,O=C(NC(Cc1c[nH]c2ccccc12)C(=O)OCC(=O)c1cccc2ccccc12)c1cccs1 (configuration not stated),inactive: 12.1%
13,COC(CNC(=O)c1ccc2nc3ccccc3c(=O)n2c1)OC,inactive: 16.9%
14,CCN(CC)c1ccc(CNc2nc3ccccc3n2CC)cc1,inactive: -4.77%
15,O=C(O)CNC(=S)N(Cc1ccco1)Cc1ccccc1Cl,inactive: 5.8%
16,O=C(O)c1nn(Cc2csc(-c3ccccc3)n2)c(=O)c2ccccc12,inactive: -5.23%
17,O=C(c1ccoc1)N1CCC(CO)(CCc2ccccc2)CC1,inactive: 6.88%
18,Cc1cccc(-c2ocnc2C(=O)N2CCN(C(=O)c3cccs3)CC2)c1,inactive: 6.76%
19,O=C(NCC(=O)N1CCN(Cc2ccc3c(c2)OCO3)CC1)c1ccccc1F,inactive: 6.38%
20,Cc1ccc(C(=O)Nc2ccc(N3CCN(S(C)(=O)=O)CC3)cc2)cc1C,inactive: -15.1%
21,Cc1cccc(N(CC(=O)NCc2ccc(F)cc2)C(=O)c2ccco2)c1,inactive: 6.52%
22,COc1cccc(NC(=O)NC(C)C2CC3CCC2C3)c1 (configuration not stated),inactive: 13.3%

row,Compound,growth rescue (activation)
1,COc1ccc(-n2nc(C(=O)NCC(=O)NCCCN3CCOCC3)c3ccccc3c2=O)cc1OC,inactive: 1.63%
2,O=C(Nc1ccc(N2CCCCC2)cc1)c1ccc([N+](=O)[O-])o1,inactive: -8.56%
3,Cc1cccc(Nc2c([N+](=O)[O-])c(=O)oc3ccccc23)c1,inactive: 2.14%
4,CCOC(=O)c1c(C)[nH]c(C(=O)COC(=O)CCSc2ccccc2)c1C,inactive: 25%
5,Cc1cc(C(O)c2ncc(-c3cccc(F)c3)[nH]2)ccc1F (configuration not stated),inactive: 2.75%
6,O=C(O)COc1ccccc1/C=N/NC(=O)c1cc(-c2ccccc2)nc2ccccc12,inactive: 2.85%
7,COc1ccc(OC)c2c1CCC2=O,inactive: 4.19%
8,O=C(Nc1cccc(O)c1)c1cccc(NC(=O)c2cccs2)c1,inactive: 10%
9,Nc1nnc(SCC(=O)Nc2cccc(Cl)c2)s1,inactive: 30%
10,Cc1ccc(-c2nnc(SCC(=O)NC3CCCC3)n2N)cc1,inactive: 9.28%
11,O=[N+]([O-])c1ccc(N/N=C2/CCCCC2c2ccccn2)cc1 (configuration not stated),inactive: 16.8%
12,Cc1nc2ccc(NC(=O)CSc3nnc(C)s3)cc2[nH]1,inactive: 6.35%
13,CC1CCC2(CC1)NC(=O)N(CC(=O)N1CCOCC1)C2=O (configuration not stated),inactive: 13.2%
14,Cc1ccc(S(=O)(=O)N2CCCCC2)cc1NS(=O)(=O)c1ccccc1F,inactive: 4.01%
15,CCc1ccc2c(c1)C1(C(=O)N2)N2CCCC2C(C(=O)c2ccc3ccccc3c2)C12C(=O)Nc1ccccc12 (configuration not stated),inactive: 15.4%
16,COCCNC(=S)N1CCC(C(=O)c2ccc3c(c2)OCCO3)CC1,inactive: 0.19%
17,CCOC(=O)c1c(NC(C)=O)sc2c(OCC(O)CN(CC)CC)c(Br)ccc12 (configuration not stated),inactive: -20%
18,COc1ccc(CCNC(=O)Nc2nc(C(N)C3CCCCC3)cs2)cc1OC (configuration not stated),inactive: -2.52%
19,CN(CCO)c1nc(N)c(C#N)c(CC#N)c1C#N,inactive: -62.6%
